{"source": "patent US9290464B2", "about": "(priority 2010, dated 2016)", "system": "MPTP-induced mouse", "assay": "Immunohistochemistry staining with antibody against tyrosine hydroxylase, neurons of substantia nigra, MPTP-induced mouse", "details": "1 mg/kg oral; compared with rasagiline group; FIG. 5", "experimental": "C57BL/6 mice (n=94, 8-week-old; male) were used as an experimental model (substrain: C57BL/6NCrljBgi, ORIENT BIO INC.). 30 mg/kg of MPTP was administered to the mice via intraperitoneal injection once a day for 4 days. 4 days after the last day of administration, the mice were divided into three group, and an excipient (control), 1 mg/kg of CBI, and 1 mg/kg of rasagiline were respectively administered orally to the three groups once a day for 10 days. Next day after the last day of administration, a tail suspension test (TST) was performed on each group, and striatum and substantia nigra brain tissue were taken out from each group of mice, and thus the concentrations of dopamine and metabolic product thereof in striatum and the extent of a decrease in neurons in substantia nigra were measured.\nA change in the expression of an antibody against tyrosine hydroxylase in striatum and substantia nigra according to the administration of the compounds described above was measured by immunohistochemistry staining. Each group of mice was anesthetized with sodium pentobarbital (50 mg/kg), the thorax of the mouse was opened, and 200 ml of 0.1 M PBS (pH 7.4) was perfused into the heart, thereby removing blood in blood vessels. […]"}
{"smiles": "NC(=O)OCc1cc(-c2ccc(OCc3ccccc3)cc2)no1", "note": "[CBI, carbamic acid 3-(4-benzyloxy-phenyl)-isoxazole-5-yl methylester]", "values": [{"measurement": "extent of a decrease in neurons in substantia nigra (tyrosine hydroxylase staining)", "result": "the same extent of a decrease in neurons in substantia nigra"}]}
